Assay results taken from paper PMC12831459.
No constants are given. Whether binding was seen depends on the method and setting. Binding seen in cells or lysates may run through a third protein. Some binding calls cover weakened binding; strength is not graded here. Tags and fused reporters may be left off the sequences shown.

Amino acid sequences for entries named in this document (tags omitted). A change or cut given only in a name is not applied to a line headed by its entry. Chains listed by the source or under a name are the forms on record and can include a tag or linker. Residues count along the entry.
UniProt Q13485: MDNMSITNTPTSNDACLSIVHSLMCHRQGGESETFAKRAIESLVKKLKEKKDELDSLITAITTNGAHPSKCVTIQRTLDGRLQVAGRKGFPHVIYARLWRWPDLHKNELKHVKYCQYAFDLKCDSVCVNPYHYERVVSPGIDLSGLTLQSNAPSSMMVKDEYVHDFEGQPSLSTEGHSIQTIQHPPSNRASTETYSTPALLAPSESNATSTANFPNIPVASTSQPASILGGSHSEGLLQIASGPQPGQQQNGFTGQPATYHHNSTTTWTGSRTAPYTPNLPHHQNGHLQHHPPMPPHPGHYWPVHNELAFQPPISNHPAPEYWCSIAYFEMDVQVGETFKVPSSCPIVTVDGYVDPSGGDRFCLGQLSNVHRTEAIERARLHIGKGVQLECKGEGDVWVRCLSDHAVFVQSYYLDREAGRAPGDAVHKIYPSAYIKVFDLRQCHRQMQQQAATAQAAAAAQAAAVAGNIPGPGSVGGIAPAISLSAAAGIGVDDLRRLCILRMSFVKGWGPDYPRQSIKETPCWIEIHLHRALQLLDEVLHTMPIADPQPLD
GST-tagged SMAD4 MH1 domain truncation (1-142 amino acids): residues 1-142 of Q13485
GST-tagged SMAD4 linker region truncation (143-318 amino acids): residues 143-318 of Q13485
GST-tagged SMAD4 MH2 domain truncation (319-552 amino acids): residues 319-552 of Q13485
UniProt P05412: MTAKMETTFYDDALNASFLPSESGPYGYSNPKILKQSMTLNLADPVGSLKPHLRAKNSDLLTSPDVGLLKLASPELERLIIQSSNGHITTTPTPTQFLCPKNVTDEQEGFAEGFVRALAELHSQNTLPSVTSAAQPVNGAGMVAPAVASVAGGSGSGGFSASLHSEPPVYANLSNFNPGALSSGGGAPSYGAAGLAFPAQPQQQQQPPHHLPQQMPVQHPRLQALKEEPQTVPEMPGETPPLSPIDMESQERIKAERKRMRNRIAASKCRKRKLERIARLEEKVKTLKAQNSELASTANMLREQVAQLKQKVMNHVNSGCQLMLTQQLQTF

Legend:
[1] = biological target: GST-SMAD4 (full-length, WT) (human) (UniProt Q13485); test: FRET or BRET; TR-FRET screen in cell lysates, orthogonal to the BRET screen; hits at FOC >= 1.5 and P <= 0.05
[2] = biological target: GST-tagged SMAD4 MH1 domain truncation (1-142 amino acids) (human) (UniProt Q13485); test: FRET or BRET; TR-FRET of single pairs: GST-SMAD4 (WT, domain truncations, truncation mutants) with VF-tagged partners; signal as fold change over empty vector controls
[3] = biological target: Nanoluc (Nluc)-tagged SMAD4 (human) (UniProt Q13485); test: FRET or BRET; BRETn screen in live cells: Nluc-tagged SMAD4 against Venus-tagged proteins of the OncoPPI v2 library (556 genes); hits at FOC >= 1.5 and P <= 0.05
[4] = biological target: GST-tagged SMAD4 MH2 domain truncation (319-552 amino acids) (human) (UniProt Q13485); test: pull-down; GST-pulldown from lysates of HEK293T cells co-expressing a GST-tagged and a VF-tagged protein, then immunoblotting; in some panels cells treated with TGF-β (10 ng/ml, 4 h), SB431542 (10 μM, 1 h), ionomycin 10 μM + PMA 1 μM (4 h) or CsA (10 μM, 1 h)
GST-tagged cJUN (human) = GST-tagged cJUN (human) (UniProt P05412); test: as above
[5] = biological target: GST-tagged SMAD4 R361H (human) (UniProt Q13485); test: as above
[6] = biological target: GST-tagged SMAD4 R361C (human) (UniProt Q13485); test: as above
[7] = biological target: GST-tagged SMAD4 linker region truncation (143-318 amino acids) (human) (UniProt Q13485); test: as above
[8] = biological target: GST-tagged SMAD4 MH1 domain truncation (1-142 amino acids) (human) (UniProt Q13485); test: as above
[9] = biological target: GST-SMAD4 (full-length, WT) (human) (UniProt Q13485); test: as above

binding [1]: binds | binding [2]: binds | binding [3]: binds | binding [4]: no binding | binding (GST-tagged cJUN (human)): binds | binding [5]: binds | binding [6]: binds | binding [7]: no binding | binding [8]: binds | binding [9]: binds
B1: Venus-Flag-tagged NFATc1 (VF-NFATc1), full-length WT (protein, UniProt O95644-2 1-716)
chain: MPSTSFPVPSKFPLGPAAAVFGRGETLGPAPRAGGTMKSAEEEHYGYASSNVSPALPLPTAHSTLPAPCHNLQTSTPGIIPPADHPSGYGAALDGGPAGYFLSSGHTRPDGAPALESPRIEITSCLGLYHNNNQFFHDVEVEDVLPSSKRSPSTATLSLPSLEAYRDPSCLSPASSLSSRSCNSEASSYESNYSYPYASPQTSPWQSPCVSPKTTDPEEGFPRGLGACTLLGSPRHSPSTSPRASVTEESWLGARSSRPASPCNKRKYSLNGRQPPYSPHHSPTPSPHGSPRVSVTDDSWLGNTTQYTSSAIVAAINALTTDSSLDLGDGVPVKSRKTTLEQPPSVALKVEPVGEDLGSPPPPADFAPEDYSSFQHIRKGGFCDQYLAVPQHPYQWAKPKPLSPTSYMSPTLPALDWQLPSHSGPYELRIEVQPKSHHRAHYETEGSRGAVKASAGGHPIVQLHGYLENEPLMLQLFIGTADDRLLRPHAFYQVHRITGKTVSTTSHEAILSNTKVLEIPLLPENSMRAVIDCAGILKLRNSDIELRKGETDIGRKNTRVRLVFRVHVPQPSGRTLSLQVASNPIECSQRSAQELPLVEKQSTDSYPVVGGKKMVLSGHNFLQDSKVIFVEKAPDGHHVWEMEAKTDRDLCKPNSLVVEIPPFRNQRITSPVHVSFYVCNGKRKRSQYQRFTYLPANGNAIFLTVSREHERVGCFF
